Experimental data published in PubChem BioAssay AID886 (National Center for Advancing Translational Sciences (NCATS), 2007).
Where “and” joins values, the source holds several entries; their conditions need not be identical. Identical values can stand only once. Hit rate of the full screen: of about 73,000 compounds, about 2,500 (3.4%) were called active. The shares of active, inactive and inconclusive entries below differ from those in the screen. Calls follow the shape of the dose curve; as a rule, active = well fitted inhibition curve with a large enough effect; inconclusive = small, poorly fitted or top-dose-only effect; inactive = no such curve, though single readings can be large or run the other way. Where the call is inconclusive, the potency comes from a doubtful curve fit.

target: 3-hydroxyacyl-CoA dehydrogenase type-2 (Homo sapiens) (UniProt Q99714); assay: qHTS Assay for Inhibitors of HADH2 (Hydroxyacyl-Coenzyme A Dehydrogenase, Type II); conditions: recombinant HADH2, NADH fluorescence, beta-hydroxybutyryl-CoA; series mostly up to 57.1 µM; also: nearly all actives have a fitted effect of over 60% in size
Method in brief: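 E. coli-expressed His-tagged HADH2 tested at 20 nM in alkaline Tris buffer (pH 9.0); oxidation of 90 uM beta-hydroxybutyryl-CoA with 1 mM NAD+ tracked fluorimetrically for 4 min.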
Potency is read from the fitted curve at half-maximal effect; tags tell the direction and shape of the fitted curve.

UniProt Q99714, sequence (Q99714 whole entry, looked up): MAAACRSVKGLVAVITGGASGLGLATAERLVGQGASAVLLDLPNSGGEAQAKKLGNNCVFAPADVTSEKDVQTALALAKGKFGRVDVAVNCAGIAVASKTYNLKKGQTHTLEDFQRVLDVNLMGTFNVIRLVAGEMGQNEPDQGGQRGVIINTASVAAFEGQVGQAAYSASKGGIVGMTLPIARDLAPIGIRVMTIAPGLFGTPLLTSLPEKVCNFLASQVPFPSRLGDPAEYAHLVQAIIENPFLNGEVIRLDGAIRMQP
UniProt Q99714, sequence (Q99714 whole entry, looked up): as above

SMILES	Potency
O=C(CSc1ncn(-c2ccccc2)n1)N1CCN(c2ccccc2)CC1	inconclusive: 39.8 µM [inhibitor, single point]
Cc1ccc(S(=O)(=O)Nc2nc3ccccc3nc2NCc2ccco2)cc1	inconclusive: 5.01 µM [inhibitor, full curve]
Cc1ccc(C2NC(=O)c3ccccc3N2)s1 (centres undefined)	active: 25.1 µM
Cc1c(O)c(Br)c(C)c(O)c1Br (tested in a mixture with another compound)	active: 0.398 µM
Cc1ccc(C2NC(=O)NC3=C2CCc2ccccc23)cc1 (centres undefined)	active: 31.6 µM
NC(=O)c1ccccc1	inconclusive: 39.8 µM [inhibitor, single point]
CCC1(CC)C(=O)NC(=O)NC1=NCCc1ccc(O)cc1	inconclusive: 31.6 µM [inhibitor, single point]
CCC(C)OC(=O)C1=C(C)NC(=O)CC1c1ccccc1OC (centres undefined)	inconclusive: 20 µM [inhibitor, single point]
Cc1cc(C)nc(SCCS(=O)Cc2ccc(Cl)cc2)n1 (centres undefined)	inconclusive: 39.8 µM [inhibitor, single point]
S=C(Nc1ccc2cn[nH]c2c1)Nc1ccc2cn[nH]c2c1	inconclusive: 1.58 µM [inhibitor, full curve, poor fit]
CCc1nc(N2CCCCC2C)c2oc3ccccc3c2n1 (centres undefined)	inactive
Cc1cccc(NC(=O)c2cc(NC(=O)c3ccco3)ccc2N2CCCCC2)c1	inconclusive: 31.6 µM [inhibitor, single point]
Cc1ccc(CN2C(=O)CCC2C(=O)NCc2ccc(F)cc2)cc1 (centres undefined)	inconclusive: 25.1 µM [inhibitor, single point]
CCCC1(C(=O)OCC)NC(c2ccc(N(C)C)cc2)C2C(=O)N(c3ccc(OCC)cc3)C(=O)C21 (centres undefined)	inconclusive: 25.1 µM [inhibitor, single point]
CS(=O)(=O)N1CCN(C(=O)c2csc3ccccc23)CC1	active: 20 µM
COc1ccc(OC)c(NC(=O)c2cc3ccccc3o2)c1	inactive
COC(=O)c1[nH]c2cc(OC)ccc2c1NC(=O)CCN1CCN(c2cccc(C)c2C)CC1	inactive
COC(=O)C1=CN(C2CC2)C=C(C(=O)OC)C1c1ccccc1OC	active: 25.1 µM
COc1ccccc1-c1nccc(-n2ccnc2)n1	inactive
O=C(O)c1ccc(CNc2ccccc2C(=O)O)cc1	inconclusive: 39.8 µM [inhibitor, single point]
CN(C)/C=C1/Sc2ccccc2C1=O	inconclusive: 39.8 µM [inhibitor, single point]
O=C(O)CC1Sc2ccccc2NC1=O (centres undefined)	inconclusive: 12.6 µM [inhibitor, partial curve]
C[C@H](Cc1ccc(O)c(O)c1)[C@@H](C)Cc1ccc(O)c(O)c1	active: 1 µM and active: 126 nM
Cc1nc(NC2CCCCC2)c2nc(-c3ccccc3)n(CCN3CCCCC3)c2n1	inconclusive: 39.8 µM [inhibitor, single point]
COc1ccc2c(=O)cc(-c3ccc(O)cc3)oc2c1	inconclusive: 31.6 µM [inhibitor, partial curve]

SMILES	Potency
N#Cc1nc(-c2ccco2)oc1N1CCN(c2ccccc2)CC1	inconclusive: 39.8 µM [inhibitor, single point]
NCCc1ccc(O)c(O)c1	active: 0.501 µM
CCCOc1ccc2oc(=O)c3c(c2c1)CCCN3C(=O)CN1CCCC(C(=O)OCC)C1 (centres undefined)	inactive
c1ccc(CNc2ncncc2-c2ccoc2)cc1	inconclusive: 7.94 µM [inhibitor, full curve]
CCC(=O)Oc1ccc(C/C(=N\O)c2ccc(O)cc2O)o1	active: 15.8 µM
O=C(O)CCc1ccc(-c2cccs2)n1NC(=O)c1ccccc1Br	inactive
CCc1nnc(NC(=O)c2c(OC)cccc2OC)s1	inconclusive: 31.6 µM [inhibitor, single point]
COc1ccccc1OCCCCCc1c(C)n[nH]c1C	inconclusive: 25.1 µM [inhibitor, partial curve]
COC(=O)COc1ccc(S(=O)(=O)NCc2ccncc2)cc1	inactive
COc1ccc2c(c1OC)C(=O)N(c1ccccn1)C2	inconclusive: 31.6 µM [inhibitor, single point]
COc1ccc(-c2ccc(-c3noc(C4CCCCC4)n3)c(OC)n2)cc1	inactive
COc1cc([C@H]2c3cc4c(cc3[C@@H](O[C@@H]3O[C@H]5CO[C@@H](C)O[C@]5(O)C[C@H]3O)[C@@H]3COC(=O)[C@H]23)OCO4)cc(OC)c1O	inconclusive: 7.94 µM [inhibitor, full curve]
COc1ccc(-c2ccc(C(=S)N3CCN(C(C)=O)CC3)o2)cc1	active: 2 µM
O=C(O)CSc1nnc(C2CC2)n1-c1ccccc1	inconclusive: 25.1 µM [inhibitor, partial curve]
Cn1c(=O)c2cc(NC(=O)c3ccccc3Cl)c(=O)oc2n(C)c1=O	inconclusive: 25.1 µM [inhibitor, single point]
Cc1oc2c(O)c(O)ccc2c(=O)c1-c1cnn(-c2ccccc2)c1	active: 15.8 µM
CO/N=C(\C(=O)N[C@@H]1C(=O)N2C(C(=O)O)=C(CSc3nc(=O)c(O)nn3C)CS[C@@H]12)c1csc(N)n1	active: 12.6 µM
N#Cc1nc(-c2ccco2)oc1NCCCn1ccnc1	active: 25.1 µM
NC(=O)SCC(=O)Nc1cccc(Cl)c1	inconclusive: 1 µM [inhibitor, full curve]
CCCNC(=O)c1ccccc1NS(=O)(=O)c1ccc(OC)c(OC)c1	inconclusive: 39.8 µM [inhibitor, single point]
CNC(=O)CSc1nnc(-c2cc(C)cc(C)c2)o1	inactive
CCCN(CC1CC1)c1nc(C)nc(Nc2c(Cl)cc(Cl)cc2Cl)c1Cl	inactive
O=C(O)[C@H]1CCCN(CCC=C(c2ccccc2)c2ccccc2)C1	inconclusive: 5.01 µM [inhibitor, full curve, poor fit]
CCN(CC)C(=O)c1sc2nc(-c3ccncc3)[nH]c(=O)c2c1C	inconclusive: 31.6 µM [inhibitor, single point]
